The source of these data is ChEMBL document CHEMBL4888484, “Replenishing the malaria drug discovery pipeline: Screening and hit evaluation of the MMV Hit Generation Library 1 (HGL1) against asexual blood stage Plasmodium falciparum ,using a nano luciferase reporter read-out” (2022).

Screen size: about 150,000 compounds; about 540 (0.36%) showed an effect of 50% or more. This is one part of the list.

This experiment has as its system Plasmodium falciparum. Put plainly: Primary screen in NF54 nanoGlo assay, in single point, at 2uM, 72h; a lower Z score goes with more inhibition. Conditions: timepoint 72 hour. The experiment is classed as functional, Erythrocyte.
With `Cc1noc(C(=O)N2CCN(Cc3ccc4c(c3)OCO4)CC2)c1Cl`, the “% Inhibition” value is on record as -8% and the Z score is 1.24.
For `Cc1ccc(C(=O)NC2CC2)cc1NS(=O)(=O)c1ccc2c(c1)CCCC2` the same measures were -11% and 1.16.
For `Cn1cc(C[C@@H](CNC(=O)c2cccc(Cl)c2F)C(N)=O)cn1`, in that order: -10% and 0.83.
For `CC(C)C[C@H](OC(=O)c1cccnc1)c1ccccn1`, in that order: -4% and 0.41.
For `O=C(Nc1nc(CCCc2c[nH]c3ccccc23)n[nH]1)c1ccccn1`, the “% Inhibition” value was 6% and the Z score is recorded as -0.72.
For `Cc1nccc(OC2CCN(S(=O)(=O)c3ccc4c(c3)CCO4)CC2)n1`, in that order: 2% and -0.28.
For `O=C1NC2(CCN(S(=O)(=O)c3ccc(F)c(F)c3)CC2)Nc2ccccc21` the same measures were -13% and 1.31.
For `C#CCCC1(CCC(=O)N2C[C@H]3CCCC[C@H]3C2)N=N1`, in that order: -2% and 0.29.
`C[C@H]1CN(c2cccc(Cl)c2C#N)CCCO1`: the “% Inhibition” value is listed as -12% and the Z score is reported as 1.41.
For `CCc1c(C)nn(C)c1NC(=O)C[C@H]1C(=O)NCCN1Cc1ccccc1`, in that order: -11% and 2.01.
For `CCOc1ccc(S(=O)(=O)N[C@H]2CC[C@@H](CC(=O)O)C2)c(C)c1` the same measures were -1% and 0.16.
For `CC(=O)[C@H]1CCN(c2nc(C)cc(C)n2)C1` the same measures were -12% and 2.26.
For `CC1(C)CN(C(=O)Nc2cnn(-c3ncc(Cl)cc3Cl)c2)CC(C)(C)O1`, the “% Inhibition” value was -14% and the Z score turned out to be 1.58.
For `COc1ccc(NC(=O)Cn2cc(-c3noc(-c4cccnc4)n3)nc2C)cc1`, in that order: 27% and -3.61.
For `CC(C)C(=O)N1CC(C)(C)c2cc(S(=O)(=O)N3CCc4ccccc4C3)ccc21`, in that order: -2% and 0.26.
For `CCCNC(=O)C1CCN(C(=O)[C@]2(C)CCOc3ccccc32)CC1` the same measures were -11% and 1.88.
For the compound `Cc1nc([C@@H](C)Cn2nc(C(F)(F)F)cc2C2CC2)sc1C(=O)O`, the “% Inhibition” value was -31% and the Z score was found to be 3.61.
For `CCc1nnc(N(C)C[C@H]2COc3ccccc3O2)nc1CC` the same measures were -18% and 1.81.
As for `O=C(Nc1cc(Cl)c(OCC(F)(F)F)c(Cl)c1)c1ncncc1Cl`, the “% Inhibition” value is given as 29% and the Z score is recorded as -3.88.
For `COc1ccccc1C(=O)NCn1cncn1` the same measures were -9% and 1.07.
For `O=C(Cn1ncnn1)Nc1c(F)c(F)c(F)c(F)c1F`, in that order: 1% and -0.17.
For `Cc1ccc(NC2CCN(CCN3CCCCC3)CC2)cc1` the same measures were 1% and -0.18.
`NC(=O)CCC1NC2(C(=O)Nc3ccc(Cl)cc32)C2C(=O)N(CC3CCCO3)C(=O)C12` (stereo not given): the “% Inhibition” value is reported as -3% and the Z score worked out at 0.44.
For the compound `CCOc1ccccc1NC(=O)CC1CCN(S(=O)(=O)c2ccc3c(c2)CCN3C(C)=O)CC1`, the “% Inhibition” value is -15% and the Z score stood at 1.37.
Turning to `Cc1ccc(O[C@H]2CCCN(C(=O)NCc3cccs3)C2)nn1`, the “% Inhibition” value is recorded as -6% and the Z score turned out to be 0.93.
In the case of `O=c1ccc(-c2noc(Cc3cccc(Cl)c3)n2)c[nH]1`, the “% Inhibition” value was 2% and the Z score is listed as -0.31.
For `Cc1cc(NC(=O)NCc2nc(C(F)(F)F)cs2)c[nH]c1=O`, in that order: -9% and 1.11.
For `C[C@@H](O)CNc1cccc(F)c1C(N)=O`, in that order: -4% and 0.74.
Turning to `O=C(c1ccccn1)N(CCN1CCCC1)C1CCOCC1`, the “% Inhibition” value is reported as -2% and the Z score worked out at 0.35.
For `O=C(O)[C@H]1CCCCN1C(=O)c1ccc(Cl)cc1F` the same measures were -10% and 1.35.
For `CN(C)C(=O)c1ccc(C(=O)Nc2ccc(C(N)=O)c(N3CCCCC3)c2)cc1` the same measures were -3% and 0.56.
For `COc1ccc(N(CCc2ccccc2)C(=O)c2cnns2)cc1` the same measures were -7% and 1.09.
In the case of `CC(C)C[C@@H](NC(=O)OC(C)(C)C)C(=O)N[C@H](CC(C)C)C(=O)N[C@@H](C(=O)OCc1ccccc1)C(C)C`, the “% Inhibition” value was -18% and the Z score amounted to 2.31.
For `CN1CCN(CCOc2ccccc2)C[C@@]12CCC(=O)N(CC1CC1)CC2`, in that order: -5% and 0.68.
For `CC[C@H]1c2cccn2CCN1C(=O)CCc1cscn1` the same measures were 35% and -5.02.
For `CC1CC(C(=O)N2CCCC(Cc3ccccc3)C2)CCO1` (stereo not given) the same measures were -24% and 2.55.
As for `CCCc1cnc(NCC[C@H]2CCCCN2C2CCCC2)nc1`, the “% Inhibition” value is on record as 0% and the Z score was -0.01.
For `COc1cccc(Nc2cc(C)nc3ccnn23)c1`, in that order: 5% and -0.5.
For `CCOC(CN1CCOCC12CCCC2)OCC` the same measures were 2% and -0.25.
For `CCCCCNC(=O)[C@H]1N(C(=O)OC(C)(C)C)CC12CCOCC2`, in that order: -17% and 2.76.
Turning to `CC(C)C(=O)Nc1ccc(NCc2ccncc2)cc1`, the “% Inhibition” value is recorded as -16% and the Z score is listed as 3.14.
Consider `CC(C)C[C@]1(c2nc(-c3ccccc3F)no2)CCNC1=O`, for which the “% Inhibition” value is listed as 5% and the Z score is recorded as -0.73.
For `Cc1ccc2c(c1)N(S(C)(=O)=O)C[C@@H](C(=O)Nc1ccccc1C(N)=O)O2`, in that order: -17% and 2.13.
For `Cc1nc([C@H](C)NC(=O)C2(C#N)CCOCC2)cs1` the same measures were -1% and 0.28.
For `CN(CC(=O)NCC1CCCCC1)c1ccc(O)cc1`, in that order: -3% and 0.43.
Consider `CC1CC(NC(=O)C2(CF)CCC2)CCO1` (stereo not given), for which the “% Inhibition” value came to 1% and the Z score was -0.12.
For `CCc1ccc(NC(=O)c2ccc(N3CC(C)CC(C)C3)c(NS(=O)(=O)c3ccc(Cl)cc3)c2)cc1` (stereo not given), in that order: -7% and 0.86.
For `c1ccc(-c2noc([C@@H]3CCCN3C3CCCC3)n2)nc1` the same measures were 7% and -0.87.
For `Cc1cccc(NS(=O)(=O)c2c(C)sc(C)c2-c2ccno2)c1` the same measures were 1% and -0.11.
As to `O=S1(=O)C[C@@H]2[C@H](C1)N(Cc1ccccc1)CCN2CC1CC1`, the “% Inhibition” value was -10% and the Z score is 1.14.
For `Cc1ccc2[nH]c3c(c2c1)CN(C(=O)OC(C)(C)C)CCC3` the same measures were 1% and -0.11.
For `CC1CCC(NC(=O)CNC(=O)C2CCCCC2)CC1` (stereo not given) the same measures were -5% and 0.82.
For `CCn1nc(C(=O)N2CCCCCC2)c2c1CC[C@H](NCc1ccc(Cl)s1)C2`, in that order: -11% and 2.12.
On to `C[C@H]1CN(Cc2cc(-c3cccs3)on2)CCO1`, for which the “% Inhibition” value is recorded as 1% and the Z score is on record as -0.14.
For `CCC[C@@H](C(=O)NCC(=O)N(C)C)N1CCN(C(=O)OC(C)(C)C)CC1`, in that order: -2% and 0.22.
For `Cc1c(C(=O)NC2CCCC(C(N)=O)C2)cccc1-c1ccccn1` (stereo not given) the same measures were -16% and 2.04.
For `C[C@@H](Cc1cccs1)NC(=O)C1(C2(O)CCNCC2)CCC1`, the “% Inhibition” value is listed as -6% and the Z score is 0.67.
For `CC(C)COC(C)C(=O)N(C)C(C)C1CC1` (stereo not given) the same measures were -4% and 0.31.
For `O=C(NCc1cccnc1N1CCOCC1)Nc1cc(C(F)(F)F)ccc1Cl`, in that order: -2% and 0.27.
For `FC(F)Cn1cc(Nc2ccc(C(F)(F)F)cn2)cn1` the same measures were -12% and 1.17.
As to `Cc1nc2nc(N3CCCCC3)sc2c(=O)[nH]1`, the “% Inhibition” value amounted to 36% and the Z score is -4.04.
For `COC(=O)c1nc(NC(=O)c2c(C)noc2C)sc1C(C)C` the same measures were -2% and 0.26.
As for `COc1ccsc1C(=O)Nc1ccc2c(c1)C(=O)NCC2`, the “% Inhibition” value was determined as 8% and the Z score is on record as -0.91.
For `O=C(Nc1cccc2c1CCCC2)c1ccc(S(=O)(=O)N2CCOCC2)cc1`, in that order: -14% and 1.22.
Regarding `Cc1cc(C(NCC2CCCS2(=O)=O)c2cccnc2)ccc1F` (stereo not given), the “% Inhibition” value was -6% and the Z score stood at 0.88.
Take `CC1CCC(C)N1C(C)c1nc(C2CCCN2S(C)(=O)=O)no1` (stereo not given): the “% Inhibition” value is given as -12% and the Z score was found to be 1.58.
For `CC(C)n1cnnc1-c1nn(C)c2c1CN(C(=O)CCc1ccccc1)CC2`, in that order: -15% and 2.19.
For `CCOC[C@H]1CCCCN1c1ncnc2c1ncn2CC` the same measures were 11% and -1.4.
For `COCC(COC)N1CCN(S(=O)(=O)N2CCCCCC2)CC1`, in that order: -4% and 0.79.
Turning to `O=C(c1cnns1)N1CCOc2ccccc2[C@@H]1CO`, the “% Inhibition” value is recorded as -7% and the Z score is recorded as 1.43.
On to `CCn1cc(S(=O)(=O)N2CCn3c(nn(C)c3=O)[C@H]2c2ccccc2)cn1`, for which the “% Inhibition” value is listed as -6% and the Z score was determined as 0.99.
For the compound `COc1ccc(C(=O)N2C[C@@H]3OCC(=O)N(Cc4cccnc4)[C@@H]3C2)cc1`, the “% Inhibition” value was 22% and the Z score is recorded as -2.56.
For `CCN(CC)CC(=O)Nc1ccc(OC2CCOCC2)c(C)c1` the same measures were -1% and 0.12.
Consider `CCc1nc(C)c(-c2nc(CC(N)=O)nn2C2Cc3ccccc3C2)s1`, for which the “% Inhibition” value amounted to 4% and the Z score was -0.79.
For `CC=CCS(=O)(=O)[C@@H](C)C(=O)N1CCC(C)CC1` the same measures were -1% and 0.1.
For `CC(=O)c1ccc(NC(=O)N2CCCC3CN(C)CCC32)cc1` (stereo not given) the same measures were -10% and 1.78.
For `Cc1nc2c(c(=O)n1C)CN(C(=O)c1nn(C)c(=O)c3ccccc13)C2` the same measures were -3% and 0.49.
As to `CC(C)C(C(=O)O)N1CCC(NC(=O)C2(c3cccc(C#N)c3)CCC2)C1=O` (stereo not given), the “% Inhibition” value was 2% and the Z score is listed as -0.36.
For `O=C(CCS(=O)(=O)c1ccc(Cl)cc1)Nc1nnc(-c2ccco2)o1` the same measures were -10% and 1.84.
For `O=C(CNCc1ccc(Cl)cc1)N1CCc2ccccc2C1` the same measures were -9% and 1.6.
For `COc1cc(NC(=O)Cn2cnc3c(-c4ccc(F)cc4)nsc3c2=O)cc(OC)c1` the same measures were -7% and 1.08.
With `COCC(=O)N[C@H](C(=O)NCC1CC1(C)C)C(C)C` (stereo not given in full), the “% Inhibition” value is -1% and the Z score stood at 0.11.
Regarding `O=C(O)COc1ccc(S(=O)(=O)Nc2ccccc2C(=O)NCCc2ccccc2)cc1Cl`, the “% Inhibition” value is listed as 6% and the Z score is recorded as -0.76.
For `Fc1ccc(CN2C[C@@H]3CC[C@H]2CNC3)c(F)c1F`, in that order: -10% and 1.73.
Consider `O=C(O)[C@H]1CN(C(=O)Cc2ccccc2F)C[C@@H]1C1CC1`, for which the “% Inhibition” value is 1% and the Z score is listed as -0.15.

A word on the % Inhibition: it is the change of the read-out against control, counted positive when it falls.
